According to the RNAGym collection of RNA variant scans (doi:10.1093/nar/gkz1192):
The source gives no read counts; variants with many changes may rest on few reads.

B1: CPEB3 Ribozyme (parent)
chain: UAACAGGGGGCCACAGCAGAAGCGUUCACGUCGCAGCCCCUGUCAGAUUCUGGUGAAUCUGCGAAUUCUGCUGUAUAUCUC

Variants of: B1
Assay: self-cleavage, relative activity (ratio to wild type); higher = more cleavage; in vitro, sequencing
Summary of the method: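 Libraries of CPEB3 self-cleaving ribozyme mutants came from rounds of error-prone PCR and carried barcodes, which DNA sequencing matched to variants. In vitro transcription used T7 RNA polymerase at 37°C for 5 hours, with a further 15 min in DNase I before EDTA stopped the reaction; the ribozymes cleaved during both steps. The RNA was reverse transcribed with template switching and sequenced on Illumina. Relative activity is the cleaved/total read fraction of a variant divided by that of the unmutated ribozyme, averaged over three batches with at least 5 reads.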
With UAACAGGGGGCCACAGCAGAAGCUUCCACGUCGCAGCCCCCGUCAGAUUCUGGUGAAUCUGCGAAUGCUGCUGUGUGUCUC [G24U U26C U41C U67G A75G A77G] the self-cleavage was 0.05.
For UAACAGGGGGCCACAGCAGAAGCUUUCACGUCGCGGCCCCUGUCAGAUUCUGGCGAAUCUGCGAAUUCUGCCGUAUAUCUC [G24U A35G U54C U72C], the self-cleavage was 0.45.
In the case of UAACAGGGGGCCACAGCAGAAGCAUUCACGUCGCAGCCCCUGUCAGAUUCGGGUGAAUCUGCGAAUUCUGCUGCAUAUCUC [G24A U51G U74C], the self-cleavage is reported as 0.22.
With UAACAGGGGGCCACAGCAGAAGCAUUCACGUCGCAGCCCCUGUCAGAUUCUGGAGAAUCUGCGGAUUCUGCUGUAUAUCUC [G24A U54A A64G] the self-cleavage was 0.21.
In the case of UAACAGGGGGCCACAGCAGAAGCCCUCACGACGCAGCCCCUGUCAGAUUCCGGUGAAUCUGCGAAUUCUGCUGUAUAUCUC [G24C U25C U31A U51C], the self-cleavage is reported as 0.11.
For UAACAGGGGGCCACAGCAGAAGCAUUCACGUCGCAGCCCCUGUCAGAUUCCGGUGAAUCUGCGAAUUCUGCUGUAUGUCUC [G24A U51C A77G], the self-cleavage was 0.11.
UAACAGGGGGCCACAGCAGAAGCUUUCACGUCGCAGCCCCUGUCAGAUUCUGGUGAAGCUGCGUAUUCUGCUGUAUAUCUC [G24U U58G A64U] gave a self-cleavage of 0.13.
For UAACAGGGGGCCACAGCAGAAGCUUUCACGUCGCAGCCCCUGUCUGACUCUGGUGAAUCUGCGAAUUCUGCUGUAUAUCUC [G24U A45U U48C], the self-cleavage was 0.14.
Variant UAACAGGGGGCCACAGCAGAAGCUUUCACGUCUCAGCCCCUGUCAGAUUCUGGUGAAUCUGAGAAUUCUGCUGUAUAUCUC [G24U G33U C62A] has a self-cleavage of 0.29.
In the case of UAACAGGGGGCCACAGCAGAAGCUUUCACGUCGCAGCCCCUGUCAGAUUCUGGUGAAUCGGCGUAUUCUGCUGUAUGUCUC [G24U U60G A64U A77G], the self-cleavage is reported as 0.06.
For UAACAGGGGGCCACAGCAGAAGCGAUCCCGUCGCAGCCCCUGUCAGAUUCUGGUGAAUCUGCGAAUUCUGCUGUAUAUCCC [U25A A28C U80C], the self-cleavage was 0.65.
UAACAGGGGGCCACAGCAGAAGCCUUCACGUCGCAGCCCCUGUCAGAUUCUGAUGAAUCUGCGAAUUCUGCUGUAUACCUC [G24C G53A U78C] gave a self-cleavage of 0.16.
For UAACAGGGGGCCACAGCAGAAGCAUUCACGUCGCAGCCCCUGUCAGAUUCCGGUGGAUCUGCGAAUUCUGCCGCAUAUCUC [G24A U51C A56G U72C U74C], the self-cleavage was 0.17.
For UAACAGGGGGCCACAGCAGAAGCCUUCACGUCGCUGCCCCUGUCAGAUUCCGGUGGAUCUGCGAAUUCUGCCGUAUAUCUC [G24C A35U U51C A56G U72C], the self-cleavage was 0.08.
With UAACAGGGGGCCACAGCAGAAGCCUUCUCGUCGCAGCCCCUGUCGGAUUCUGGUGAAGCUGCGAACUCUGCUGUAUAUCUC [G24C A28U A45G U58G U66C] the self-cleavage was 0.18.
In the case of UAACAGGGGGCCACAGCAGAAGCAUUCACGUCGCAGCCCCUGGCUGAUUCUGGUGAAUCUGCGAAUUCUGCUGUAUAUCUC [G24A U43G A45U], the self-cleavage is reported as 0.14.
UAACAGGGGGCCACAGCAGAAGCCUACACGUCGCAGCCCCUGUCAGAUUCUGGUGAGUCUGCGAAUUCUGCUGUAUAUCUC [G24C U26A A57G] showed a self-cleavage of 0.25.
UAACAGGGGGCCACAGCAGAAGCUUUCACGACGCAGCCCCUGUCAGAUUCUGGCGAAUCUGCGAAUUCCGCUGUAUAUCUC [G24U U31A U54C U69C] showed a self-cleavage of 0.07.
Work on UAACAGGGGGCCACAGCAGAAGCUUUCACGUCGCAGCCCCUGUCAGAUUCUGACGAAUCGGCGGUUUCUGCUGUAUAUCUC [G24U G53A U54C U60G A64G A65U] yielded a self-cleavage of 0.07.
In the case of UAACAGGGGGCCACAGCAGAAGCAUUCACGUCGCAGCCCCCGUCAGAUUCGGGAGUGUCUGCGGAUUCUGCUGUAUAUCUC [G24A U41C U51G U54A A56U A57G A64G], the self-cleavage is reported as 0.09.
For UAACAGGGGGCCACAGCAGAAGCCUUCACGUCGCAGCCCCAGUCAGAUUCAGGUGAAUCUGCGAAUUCUGCUGUAUAUCUC [G24C U41A U51A], the self-cleavage was 0.24.
UAACAGGGGGCCACAGCAGAAGCGAUCGCGUCGCAGCCCCUGUCCGACUCUGGUGAAUCUGCGAAUUCUGCUGUAUAUCUC [U25A A28G A45C U48C] showed a self-cleavage of 0.15.
UAACAGGGGGCCACAGCAGAAGCAUUCACGUCGCAGCCCCUGUCAGAUUCUGGUGAAUCCGCGAAUCCUGCUGUAUAUCUC [G24A U60C U67C] gave a self-cleavage of 0.19.
In the case of UAACAGGGGGCCACAGCAGAAGCUUUCACGUCGCAGCCCUUGUCAGAUUCUGGUGAAUCUGCGAGUUCAGCGGUAUAUCUC [G24U C40U A65G U69A U72G], the self-cleavage is reported as 0.1.
In the case of UAACAGGGGGCCACAGCAGAAGCCUUCACGUCGCAGCCCCAGUCAGAUACUGGUGAAUCUGCGAAUUCUGCUGUAUAUCUC [G24C U41A U49A], the self-cleavage is reported as 0.08.
For UAACAGGGGGCCACAGCAGAAGCCUUCACGUCGCGGCCCCUGUCAGACUCUGGUGAACCUGCGAAUUCUGCUGUAUAUCUC [G24C A35G U48C U58C], the self-cleavage was 0.16.
UAACAGGGGGCCACAGCAGAAGCCUCCACGUCGCGGCCCCUGUCAGAUCCCGGUGAAUCUGCGAAUUCUGCUGUAUAUCUC [G24C U26C A35G U49C U51C] gave a self-cleavage of 0.03.
For UAACAGGGGGCCACAGCAGAAGCCUUCACGUCGCAGCCCCUGUCAGACUCUGGUGAAUCCGCGAAUUCUGCUGUAUAUCUC [G24C U48C U60C], the self-cleavage was 0.17.
For UAACAGGGGGCCACAGCAGAAGCGAUCGCGUCGCGGCCCCUGUCAGAUUCUGGUGAAUCAGCGAAUUCAGCUGUAUACCUC [U25A A28G A35G U60A U69A U78C], the self-cleavage was 0.04.
UAACAGGGGGCCACAGCAGAAGCCUUCACGUCGCAGCCCCUGUCAGAUUCUGGUGAACCUGCGAAUUCUGCUGUAUACCUC [G24C U58C U78C] gave a self-cleavage of 0.18.
In the case of UAACAGGGGGCCACAGCAGAAGCUUUCACGUCGCAGCCCCUGUCAGAUUCGGGUGGAUCUGCGGAUUCUGCUGUAUAUCUC [G24U U51G A56G A64G], the self-cleavage is reported as 0.08.
In the case of UAACAGGGGGCCACAGCAGAAGCCUUCACGUCGCAGCCCCUGUCAGAUUCUGGUGAAUCUGCGAAUUCCACCGUAUAUCUC [G24C U69C G70A U72C], the self-cleavage is reported as 0.08.
For UAACAGGGGGCCACAGCAGAAGCAUUCACGUCGCAGCCCCUGUCAGACUCUGGUGAAUGUGCGAAUCCUGCUGUAUAUCUC [G24A U48C C59G U67C], the self-cleavage was 0.13.
With UAACAGGGGGCCACAGCAGAAGCUUUCACGCCGCAGCCCCUGUCAGAUUCUGGUGAAUCUGCGAAUUCUGCUGUAUACCUC [G24U U31C U78C] the self-cleavage was 0.07.
